Experimental data: the RNAGym collection of RNA variant scans (doi:10.1073/pnas.2313332121)
This sample is rich in variants without activity.

B1: TPR 5TU (parent)
chain: GGAUCUUCUCGAUCUAACAAAAAAGACAAAUCUGCCACAAAGCUUGAGAGCAUCUUCGGAUGCAGAGGCGGCAGCCUUCGGUGGCGCGAUAGCGCCAACGUUCUCAACUAUGACACGCAAAACGCGUGCUCCGUUGAAUGGAGUUUAUCAUG

Variants of: B1
Assay: polymerase ribozyme fitness, log enrichment relative to wild type (log ratio); higher = more active; in vitro selection for triplet polymerase activity
Method in brief: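 A single round of triplicate in vitro selection, including frozen incubation at −7 °C, was applied to PCR-built, transcribed mutant libraries of each subunit of a heterodimeric triplet polymerase ribozyme. Illumina sequencing of input and output libraries retained genotypes with ≥10 input reads and ≥1 read per output. Fitness is the base-2 logarithm of genotype enrichment divided by wild-type enrichment, from inverse-variance-weighted replicate averages.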

Variant	polymerase ribozyme fitness (log ratio)
GGAUCCUCUCGAUCUUACAAAACAGACAAAUCUGCCACAAAGCUUGAGAGCAUCUUCGGAUGCAGAGGCGGCAGCCUUCGGUGGCGAGAUAGUGCCAACGUUCUCAACUAUGACACGCAAAACGCGUGCUCCGUCGCAUGGAGUUUAUCAUG [U6C A16U A23C C87A C93U U135C A137C]	≤ -4.2
GGAUCCUCUCGAUCUUACAAAAAAGACAAAUCUGCCACAAAGCUUGAGAGCAUCUUCGGAUGCAGAGGCGGCAGCCUUCGGUGGCGCGAUUGCGCCAACGUUCUCAACUAUGACACGCAAAACGCGUGCUCCGUUUAAUGGAGCUUAUCAUG [U6C A16U A91U G136U U144C]	≤ -4.2
GGAUCCUCUCGAUCUUACAAAAAAGACAAAUCUGGCACAAAGCUUGAGAGCAUCUUGGGAUGCAGAGGCGGCAGCCUUCGUUGGGGCGAUUGCGCCAACGUUCUCAACUAUGACACGCAAAACGCGUGCUCCGUUGAAUGGAGUUUAUCAUG [U6C A16U C35G C57G G81U C85G A91U]	≤ -4.2
GGAUCCUCUCGAUCUUACAAAAAAGACAAAUCUGCCACAAAGCUUGAGAGCAUCUUCGGAUGCAGAGGCGGCAGCCUUCGGUGGCGCGAUAGCGCCAACGUUCUCAACUAAGGCACGCAAAACGCGUGCUCCGUUGAAUGGAGUUUAUCAUG [U6C A16U U111A A113G]	≤ -4.2
GGAUCCUCUCGAUCUAGCAAAAAAGACAAAUCUGCCACAAAGCAUGAGAGCAUCUUCGGAUGCAUAGUCGGCAGCCUUCGGUGGCGCGAUAGAGCCAACGUUCUCAACUAUGACACGCAAAACGUGUGCUCCGUUGAAUGGAGUUUAUCAUG [U6C A17G U44A G65U G68U C93A C125U]	≤ -4.2
GGAUCCUCUCGAUCUAUCAAAAAAGUCAAAUCUGCCACAAAGCUUGAGAGCAUCUUCGGAUGCAGAGGCGGCGGCCCUCGGUGGAGCCAUCGCGCCAACCUUCUGAACUAUGACACGAAAAACGCGUGCUCCGUUGAAUGGAGUUUAUCAUG [U6C A17U A26U A73G U77C C85A G88C A91C G100C C105G C118A]	≤ -4.2
GGAUCCUCUCGAUCUAACCAAAAAGGCAAAUCUGCCACAAAGCUUGAGAGCAUCUUCGGAUGCAGAGGCGGCAGCCUUCGGUGGGGCGAUAGCGCCAACGUUCUCAAAUAUGACACGCAAAACGCGUGCUCCGUUGAAUGGAGUUUAUCAUG [U6C A19C A26G C85G C108A]	≤ -4.2
GGAUCCUCUCGAUCUAACCAAAAAGACAAAUCUACCACAAAGCUUGAGAGCAUCUUCGUAUGCAGAGGCGGCAGCCUUCGGUGGCGCGAUGGCGCCAACGUUCUCAACUAUGACACGCAAAACGCGUGCUCCGUUGAAUGAAGUUUAUCAUG [U6C A19C G34A G59U A91G G141A]	≤ -4.2
GGAUCCUCUCGAUCUAACGAAAAAGACAAAUCUGCCACAAAGCUUGAGAGCAUCUUAGGAUGCCGAGGCGGCAGCCUUCGGUGGCGCGAUAGCGCCAACGUUCUCAACUAUGACACGCAAAACGCGUGCUCCGUUGAAUGGAGUUUAUCAUG [U6C A19G C57A A64C]	≤ -4.2
GGAUCCUCUCGAUCUAACUAAAAAGACAAAUCUGCCACAAAGCUUGAGAGCAUCUUCGGCUGCAGAGGCGGCAGCCUUCGGUGGCGAGAUUGCGCCAACGUUCUCAACUAUGACACGCAAAACGCGUGCUCCGGUGAAUGGAGUUUAUCAUG [U6C A19U A60C C87A A91U U134G]	≤ -4.2
GGAUCCUCUCGAUCUAACACAGAAGACAAAUCUGCCACAAAGCUUGAGAGUAUCUUCGGAUGCAGAGGCGGCAGCCUUCGGUGGCGCGAUAGGGCCAAUGUUGUCAACUAUGACACGCAAAACGCGUGCUCCGUUGAAUGGAGUUUAUCCUG [U6C A20C A22G C51U C93G C99U C103G A150C]	≤ -4.2
GGAUCCUCUCGAUCUAACAGAAAAGUCAAAUCUGCCACAAAGCUUGAGACCAACUUCGGAUGCAGAGGCGGCAGCCUUCGGUGGCGCGAUAGCGCCAACGUUCUCGACUAUGACACGCAAAACGCGUGCUCCGUGGAAUGGAGUUUAUCAUG [U6C A20G A26U G50C U53A A106G U135G]	≤ -4.2
GGAUCCUCUCGAUCUAACAAUAAAGACAAAUCUGCCACAAAGCUUGAGAGCAUCUUCGGAUGCAGAGGCGGCAGCCUUCGGUGGCGCGAUAGCGCCAACGAUCACAACUAUGACACGCAAAACGCGUGCUCCGUUGAAUGGAGUUUAACAUG [U6C A21U U101A U104A U148A]	≤ -4.2
GGAUCCUCUCGAUCUAACAAAUAAGUCAAAUCUGCCACAAAGCUUGAGAGCAUCUUCGGAUGCAGAGGCGGCAGCCUUCGGUGACGCGAUAGCGCCAACGUUCUCAACUAUGACACGCAAAACGCGUGCUCCGUUGAAUGGAGAUUAUCAUG [U6C A22U A26U G84A U144A]	-4.15
GGAUCCUCUCGAUCUAACAAAUAAGACAAAUCUGCCACAAAUCUGGAGAGCAUCUUCGGAUGCAGAGGCGGCAGCCUUCGGUGGGGCGAUAGCGCCAAAGUUCUCAACUAUGACACGCAAAACGCGUGCUCCGUUGAAUGAAGUUUAUCAUG [U6C A22U G42U U45G C85G C99A G141A]	≤ -4.2
GGAUCCUCUCGAUCUAACAAAACAGACAAAUCUGCCACAAAGCUUGAGAACAUCUUCGGGUGCAGAGGCGGCAGCCUUCGGUGGCGCGAUAGCGCCAACGUCCUCAACUAUGACACGCAAAACGCGUGCUCCGUUGAAUGGAGUUUAUCAUG [U6C A23C G50A A60G U102C]	≤ -4.2
GGAUCCUCUCGAUCUAACAAAAGAGACAAAUCUGCCACAAAGCUUGAGAGCAUCUUCGGAUGCAGAGGCGGCAGCCUUCGGUGGCGCGAUUGCGCCAACGUUCUCGACUAUGACACGCAAAACGCGUGCUCCGUUGAAUGGAGUUUAUCAUG [U6C A23G A91U A106G]	≤ -4.2
GGAUCCUCUCGAUCUAACAAAAGAGACAAAUCUGCCACAAAGCUUGAGAGCAUCUUCGGAAGCAGAGGCGGCAGCCUUCGGUGGCGCGAUAGCGCCAACGUUCUCAACUAUGACACGCAAAACGCGUGCUCCGUUGAAUGGAGUUUAUCAUG [U6C A23G U61A]	≤ -4.2
GGAUCCUCUCGAUCUAACAAAAUAGACAAAUCUGUCACAAAGCUUGAGAGCAUCUUCGGAUGCAGAGACGGCAGCCUUCGGUGGCGCGAUAGCCCCAACGUUCUCAACUACGAAACGCAAAACGCGUGCUCCGUUGAAUGGAGUUUAUCAUG [U6C A23U C35U G68A G94C U111C C114A]	≤ -4.2
